{"source": "paper PMC4336329", "about": "(PLoS ONE, 2015)", "note": "Screen size: about 310,000 compounds; about 14,000 (4.5%) showed an effect of 50% or more. The effect is printed as a negative number. The list shows a part of the results.", "data": [{"molecular_target": "human ether-à-go-go-related gene (hERG) potassium channel (human, UniProt Q12809)", "sequence (Q12809 whole entry, looked up)": "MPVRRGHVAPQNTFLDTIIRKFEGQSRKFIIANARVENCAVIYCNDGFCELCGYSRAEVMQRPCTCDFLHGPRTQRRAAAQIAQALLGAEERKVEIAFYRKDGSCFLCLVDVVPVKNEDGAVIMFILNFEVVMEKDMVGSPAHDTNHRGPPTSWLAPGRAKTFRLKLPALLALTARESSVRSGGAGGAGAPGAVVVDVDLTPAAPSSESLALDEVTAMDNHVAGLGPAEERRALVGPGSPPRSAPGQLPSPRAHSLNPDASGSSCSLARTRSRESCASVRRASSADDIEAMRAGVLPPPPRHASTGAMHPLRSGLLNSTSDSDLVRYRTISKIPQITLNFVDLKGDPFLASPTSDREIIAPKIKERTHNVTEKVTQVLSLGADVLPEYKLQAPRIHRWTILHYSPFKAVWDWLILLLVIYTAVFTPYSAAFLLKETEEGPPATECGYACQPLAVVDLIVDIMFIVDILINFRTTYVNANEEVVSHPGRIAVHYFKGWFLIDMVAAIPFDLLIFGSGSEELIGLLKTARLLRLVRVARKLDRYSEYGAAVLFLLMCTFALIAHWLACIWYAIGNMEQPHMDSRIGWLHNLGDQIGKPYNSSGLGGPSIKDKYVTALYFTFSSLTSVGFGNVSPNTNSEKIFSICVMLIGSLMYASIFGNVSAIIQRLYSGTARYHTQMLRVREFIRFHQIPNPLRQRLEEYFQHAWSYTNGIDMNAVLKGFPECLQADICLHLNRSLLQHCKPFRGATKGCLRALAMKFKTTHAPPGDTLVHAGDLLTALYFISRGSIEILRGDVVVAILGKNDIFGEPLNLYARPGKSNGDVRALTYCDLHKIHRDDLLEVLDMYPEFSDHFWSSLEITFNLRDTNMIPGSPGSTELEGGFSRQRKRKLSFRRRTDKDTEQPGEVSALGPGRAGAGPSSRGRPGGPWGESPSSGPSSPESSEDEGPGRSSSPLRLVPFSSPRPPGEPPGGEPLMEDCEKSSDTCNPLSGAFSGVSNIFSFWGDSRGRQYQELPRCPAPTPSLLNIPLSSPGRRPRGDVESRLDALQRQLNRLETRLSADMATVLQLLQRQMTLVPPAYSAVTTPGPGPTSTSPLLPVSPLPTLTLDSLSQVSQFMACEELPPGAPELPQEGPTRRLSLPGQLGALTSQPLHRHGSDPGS", "experiment": "primary screen, population patch clamp on CHO cells stably expressing hERG", "units": {"hERG current change (%, negative = inhibition) at 10uM": "%"}, "values": [{"compound": "CCCC(=O)C1=C(O)C(C(=O)OC)C(C)(C)CC1=NCCc1ccc(OC)c(OC)c1", "note": "(centres unmarked);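 also: peak tail current of the secondary pulse compared with the same well before compound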", "hERG current change (%, negative = inhibition) at 10uM": -25.4}, {"compound": "O=C(NC1CCCCCC1)c1ccc(CS(=O)(=O)Cc2ccc(F)cc2)o1", "hERG current change (%, negative = inhibition) at 10uM": 3.52}, {"compound": "NC(=O)c1cc([N+](=O)[O-])ccc1NCCN1C(=O)c2ccccc2C1=O", "hERG current change (%, negative = inhibition) at 10uM": 3.2}, {"compound": "COc1cccc2cc(/C(=N/O)c3ccc(Br)cc3)oc12", "hERG current change (%, negative = inhibition) at 10uM": 5.41}, {"compound": "O=C(CCc1nc(-c2ccccc2F)no1)N1CCC2(CC1)OCCO2", "hERG current change (%, negative = inhibition) at 10uM": 6.67}, {"compound": "Cc1[nH]c2ccc(C(=O)NCc3ccccn3)cc2c1C", "hERG current change (%, negative = inhibition) at 10uM": 18.4}, {"compound": "COCc1c(C(=O)N/N=C/c2ccco2)nnn1-c1nonc1N", "hERG current change (%, negative = inhibition) at 10uM": 18}, {"compound": "Cc1ccc(SCc2cc(=O)[nH]c(N3CCCCC3)n2)cc1", "hERG current change (%, negative = inhibition) at 10uM": -8.62}, {"compound": "CCn1cc(S(=O)(=O)NCc2ccc3c(c2)OCO3)cn1", "hERG current change (%, negative = inhibition) at 10uM": 0.165}, {"compound": "COc1ccccc1NC(=O)c1coc(=O)c(Br)c1", "hERG current change (%, negative = inhibition) at 10uM": 8.72}, {"compound": "CC1CCN(c2ccc(C(=O)O)cc2N)CC1", "hERG current change (%, negative = inhibition) at 10uM": 10.2}, {"compound": "CN(C)C(=O)Cn1c(=O)n(S(=O)(=O)c2ccccc2)c2ccccc21", "hERG current change (%, negative = inhibition) at 10uM": 9.25}, {"compound": "CCC(C)NC(=O)CCSCCC(=O)NC(C)CC", "note": "(centres unmarked)", "hERG current change (%, negative = inhibition) at 10uM": 17.4}, {"compound": "Nc1cc(=O)[nH]c(SCC(=O)Nc2ncc(C(F)(F)F)cc2Cl)n1", "hERG current change (%, negative = inhibition) at 10uM": 20}, {"compound": "CC1CCN(C(=O)CCNS(=O)(=O)c2ccc3c(c2)oc(=O)n3C)CC1", "hERG current change (%, negative = inhibition) at 10uM": 22.1}, {"compound": "CC1(C)CC(NC(=O)c2cccc3ccccc23)CC(C)(C)N1", "hERG current change (%, negative = inhibition) at 10uM": 9.24}, {"compound": "CCN(CC)S(=O)(=O)c1cc(OC)c(Cl)cc1OC", "hERG current change (%, negative = inhibition) at 10uM": 9}, {"compound": "CCOC(=O)CSc1nnc2c3ccccc3n(CC)c2n1", "hERG current change (%, negative = inhibition) at 10uM": 6.98}, {"compound": "Cc1ccc(-c2csc(Cc3nc(-c4cc5ccccc5oc4=O)cs3)n2)cc1", "hERG current change (%, negative = inhibition) at 10uM": 4.35}, {"compound": "CS(=O)(=O)c1ccc(Cl)c(NC(=O)C2CCCN(C(=O)c3ccc(Cl)cc3)C2)c1", "note": "(centres unmarked)", "hERG current change (%, negative = inhibition) at 10uM": -20.1}, {"compound": "CC(C)(C)NS(=O)(=O)c1cc(C(=O)O)ccc1Cl", "hERG current change (%, negative = inhibition) at 10uM": 4.6}, {"compound": "CCNC(=O)/C(=C\\c1ccccc1)NC(=O)/C=C/c1ccccc1", "hERG current change (%, negative = inhibition) at 10uM": -25.7}, {"compound": "O=C(N[C@@H](CO)C(=O)NCc1ccccc1)c1ccc(C(F)(F)F)cc1", "hERG current change (%, negative = inhibition) at 10uM": -0.237}, {"compound": "CCOC(=O)C1(Cc2ccccc2C)CCCN(C(=O)c2ccc(OC)o2)C1", "note": "(centres unmarked)", "hERG current change (%, negative = inhibition) at 10uM": -24.4}, {"compound": "CC(C)C[C@H](NC(=O)NCCc1ccc(Cl)cc1)C(=O)O", "hERG current change (%, negative = inhibition) at 10uM": 4.28}, {"compound": "CCc1cc2c(=O)c(-c3nc4ccccc4n3C)coc2c(CN2CCOCC2)c1O", "hERG current change (%, negative = inhibition) at 10uM": -23.7}]}]}
